{"source": "PubChem BioAssay AID686979", "about": "(National Center for Advancing Translational Sciences (NCATS), 2013)", "note": "Hit rate of the full screen: of about 420,000 compounds, about 50,000 (12%) were called active. The inconclusive results got no clear call from the source; some entries with a clear call stand among them for comparison. Calls follow the shape of the dose curve; as a rule, active = well fitted inhibition curve with a large enough effect; inconclusive = small, poorly fitted or top-dose-only effect; inactive = flat fitted curve, though single readings scatter. Potencies of inconclusive entries are left out as doubtful fits. % is scaled to controls: 0 for no effect and ±100 for the full control effect; potency is read from the fitted curve at half-maximal effect; tags tell the direction and shape of the fitted curve."}
{"assay": "qHTS for Inhibitors of human tyrosyl-DNA phosphodiesterase 1 (TDP1): qHTS in cells in presence of CPT; also: nearly all actives have a fitted effect of over 55% in size", "settings": "chicken DT40 Tdp1-/-;hTDP1 cells + 20 nM CPT, ATP luminescence, 48 h; activity change, negative = growth inhibition: at 46.2 µM (top of the series)", "summary_of_the_method": "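Chicken DT40 Tdp1-/- cells stably complemented with human TDP1 were seeded at 400 cells/well in medium containing 20 nM camptothecin, exposed to pin-transferred compounds, and grown at 37 °C for at least 48 hr. Viability was read as ATP luminescence.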"}
{"smiles": "CC(=O)Nc1ccc(NC(=O)Cc2sc(C)nc2-c2ccc(C)cc2)cc1", "activity change, negative = growth inhibition": "inactive: 31.9%"}
{"smiles": "COc1ccccc1-c1cc(C(=O)Nc2cccnc2)no1", "Potency": "active: 0.461 µM"}
{"smiles": "CCOC(=O)c1c(CN(C)C)n(-c2ccc(C)cc2)c2cc(Br)c(O)cc12", "Potency": "inconclusive [inhibitor, single point]"}
{"smiles": "CCc1ccccc1N(CC(=O)N1CCCCC1)S(=O)(=O)c1ccccc1", "Potency": "inconclusive [inhibitor, single point]"}
{"smiles": "CC(C)CCC(CC(C)O)c1n[nH]c(=S)n1-c1ccccc1", "note": "(centres undefined)", "activity change, negative = growth inhibition": "inactive: -21.6%"}
{"smiles": "S=C(NCc1cccs1)Nc1ccc(Cl)cc1", "Potency": "inconclusive [inhibitor, single point]"}
{"smiles": "Cc1ccc(CNC(=O)[C@@H](NC(=O)C2CCN(C(=O)[C@@H](N)CC(C)C)CC2)C(C)C)cc1", "activity change, negative = growth inhibition": "inactive: -18.4%"}
{"smiles": "CCCNC(=O)CCc1c(C)nc2nc(C)nn2c1C", "activity change, negative = growth inhibition": "inactive: 1.17%"}
{"smiles": "O=C(/C=C/c1cccc2ccccc12)c1ccncc1", "Potency": "active: 20.6 µM"}
{"smiles": "Cc1ccc(S(=O)(=O)/N=C(\\c2ccccc2)N(C)S(=O)(=O)c2ccccc2)cc1", "activity change, negative = growth inhibition": "inactive: -0.0663%"}
{"smiles": "COc1ccc2c(C)c(Cc3ccccc3)c(=O)oc2c1OC", "Potency": "inconclusive [inhibitor, single point]"}
{"smiles": "C[C@@H]1CN([C@H](C)CO)C(=O)c2cccc(NC(=O)Nc3ccc(C(F)(F)F)cc3)c2O[C@H]1CN(C)S(=O)(=O)c1cccs1", "Potency": "active: 8.2 µM"}
{"smiles": "COc1ccccc1NC(=O)CSc1nnc(-c2ccoc2C)n1CCc1ccccc1", "Potency": "inconclusive [inhibitor, single point]"}
{"smiles": "Cc1cccc(Cn2c(CN3CCC(C(=O)NC(C)C)CC3)cc3ccccc32)c1", "Potency": "inconclusive [inhibitor, single point]"}
{"smiles": "Cc1cc(C)cc(C(=O)NN2CCN(C)CC2)c1", "Potency": "inconclusive [inhibitor, single point]"}
{"smiles": "COc1ccc(C(NC(=O)C2CCN(CCOc3ccc(Cl)cc3Cl)CC2)c2ccccn2)cc1", "note": "(centres undefined)", "Potency": "inconclusive [inhibitor, single point]"}
{"smiles": "O=C(COn1nnc2ccc(Cl)cc21)NC12CC3CC(CC(C3)C1)C2", "Potency": "inconclusive [inhibitor, partial curve]"}
{"smiles": "O=C(NC(=S)Nc1ccc(-c2ccc(CO)o2)cc1)c1cccs1", "activity change, negative = growth inhibition": "inactive: -13.3%"}
{"smiles": "Cc1ccc(NC(=O)CSCc2cc(=O)c3ccccc3[nH]2)c(C)c1", "Potency": "inconclusive [inhibitor, single point]"}
{"smiles": "CC1Cc2ccccc2N1C(=O)COC(=O)c1ccc(N(C)C)cc1", "note": "(centres undefined)", "Potency": "inconclusive [inhibitor, single point]"}
{"smiles": "OCCSc1nncn1/N=C/c1c[nH]c2ccccc12", "activity change, negative = growth inhibition": "inactive: -14.4%"}
{"smiles": "Cc1ccc(C(=O)N(CN2CCCC2=O)c2ccccc2)cc1C", "Potency": "inconclusive [inhibitor, partial curve]"}
{"smiles": "Cn1c(SCCCC(=O)c2ccc(F)cc2)nnc1-c1ccncc1", "Potency": "inconclusive [inhibitor, single point]"}
{"smiles": "CCOc1ccc(CNC(=O)c2cc3c(=O)oc4ccc(C)cc4c3s2)cc1", "Potency": "inconclusive [inhibitor, single point]"}
{"smiles": "O=C(NCc1ccc2c(c1)OCO2)c1ccc(S(=O)(=O)NCC2CCCO2)cc1", "note": "(centres undefined)", "activity change, negative = growth inhibition": "inconclusive: -31.7% [inhibitor]"}
{"smiles": "COc1ccccc1C1=CC(=O)C[C@H](c2ccc(F)cc2)C1", "activity change, negative = growth inhibition": "inactive: -29.5%"}
{"smiles": "CCOC(=O)c1sc(NC(=O)CSc2nc(C)cc(C)n2)c(C#N)c1C", "Potency": "inconclusive [inhibitor, partial curve]"}
{"smiles": "Fc1ccc(-n2cc(CNCCc3ccccn3)c(-c3ccccc3Cl)n2)cc1", "Potency": "active: 9.2 µM"}
{"smiles": "COc1ccc(Oc2ncc3nc(C)c(=O)n(Cc4cccc(OC)c4)c3n2)cc1", "activity change, negative = growth inhibition": "inactive: -5.13%"}
{"smiles": "Cc1nc(NC(=O)c2ccccc2)sc1C1(C)CC(c2ccccc2F)=NO1", "note": "(centres undefined)", "activity change, negative = growth inhibition": "inactive: -97.3%"}
{"smiles": "Cc1ccc(S(=O)(=O)N2CCOc3ccccc32)c(C)c1NS(C)(=O)=O", "Potency": "inconclusive [inhibitor, single point]"}
{"smiles": "Cc1ccc(-n2c(=O)c3c(C)c(C(=O)N(C)C)sc3n(Cc3ccccc3C)c2=O)cc1C", "Potency": "inconclusive [inhibitor, partial curve, poor fit]"}
{"smiles": "Cn1c(=O)c2c(SCc3cccnc3)nc(CC(C)(C)C)nc2n(C)c1=O", "Potency": "active: 14.6 µM"}
{"smiles": "CCOC(=O)C1=NS(=O)(=O)NC(C)=C1", "activity change, negative = growth inhibition": "inactive: -10.7%"}
{"smiles": "COc1ccc(-c2cn3c(n2)sc2cc(C(=O)NCCCN4CCN(C)CC4)ccc23)cc1", "Potency": "active: 1.16 µM"}
{"smiles": "CCC(CC)C(=O)N(C)c1c(C)nc2c(OCc3cc(Cl)cc(Cl)c3)cccn12", "Potency": "inconclusive [inhibitor, single point]"}
{"smiles": "CCCOc1ccc(C2C(=O)N(C3CCCCC3)CC(=O)N2C2CCCCC2)cc1OC", "note": "(centres undefined)", "Potency": "inconclusive [inhibitor, single point]"}
{"smiles": "O=C(Nc1cccc(S(=O)(=O)N2CCCCCC2)c1)C1CCN(C(=O)c2ccc(F)cc2)CC1", "Potency": "inconclusive [inhibitor, single point]"}
{"smiles": "O=C(COCc1cc(-c2ccc(F)cc2)on1)Nc1cccc(C(F)(F)F)c1", "Potency": "inconclusive [inhibitor, single point]"}
{"smiles": "OC[C@H]1O[C@@H](c2nc3ccc(-c4nc(-c5cccs5)no4)cc3[nH]2)C[C@@H]1O", "Potency": "inconclusive [inhibitor, single point]"}
{"smiles": "CC(C)Cn1c(O)c(N=NC(=O)c2cccc(S(=O)(=O)N3CCCCC3)c2)c2ccccc21", "Potency": "active: 16.4 µM"}
{"smiles": "COc1ccc(Cn2c(CO)cnc2SCc2ccccc2)cc1", "Potency": "inconclusive [inhibitor, single point]"}
{"smiles": "O=C(CCCN1C(=O)C(c2ccccc2)Oc2cccnc21)Nc1ccccc1Cl", "note": "(centres undefined)", "activity change, negative = growth inhibition": "inactive: -5.52%"}
{"smiles": "COCCCNC(=S)N1CCN(c2nc(-c3cccc(OC)c3)cs2)CC1", "Potency": "inconclusive [inhibitor, single point]"}
{"smiles": "Cc1cccc(Nc2nc(-c3ccccc3)nc3ccccc23)c1", "Potency": "inconclusive [inhibitor, single point]"}
{"smiles": "O=C(CSC1=NCCN1)Nc1ccccc1[N+](=O)[O-]", "Potency": "inconclusive [inhibitor, single point]"}
{"smiles": "CC1CCCN(c2ccc(C(=O)Nc3cccnc3)cc2[N+](=O)[O-])C1", "note": "(centres undefined)", "Potency": "active: 16.4 µM"}
{"smiles": "CCN=C1SC(CC(=O)NCC)C(=O)N1CC", "note": "(centres undefined)", "activity change, negative = growth inhibition": "inactive: 4.22%"}
{"smiles": "CCC(=O)Nc1ccc(N2CCN(C(=O)c3ccco3)CC2)c(Cl)c1", "activity change, negative = growth inhibition": "inactive: -11.5%"}
{"smiles": "COC(=O)c1cc(OC)c(OCc2cc(C(=O)OC)oc2C)c(OC)c1", "Potency": "inconclusive [inhibitor, single point]"}
{"smiles": "CC1CCCCN1C(=O)c1ccc(OC2CCN(S(=O)(=O)N(C)C)CC2)cc1", "note": "(centres undefined)", "Potency": "inconclusive [inhibitor, single point]"}
{"smiles": "CCCCOc1ccc(C(=O)NNC(=O)C2C3CCC(C3)C2C(=O)O)cc1", "note": "(centres undefined)", "Potency": "inconclusive [inhibitor, partial curve, poor fit]"}
{"smiles": "C#CCN1C=CC(=O)[C@@H](OC(=O)Nc2ccc(OC)cc2)[C@H]1c1ccccc1Br", "Potency": "inconclusive [inhibitor, full curve, poor fit]"}
{"smiles": "O=C(Cc1ccc(OCCCc2ccccc2)cc1)NO", "Potency": "active: 11.2 µM"}
{"smiles": "CC(=O)Nc1cccc(NC(=O)C(=O)NCC(c2ccco2)N2CCc3ccccc32)c1", "note": "(centres undefined)", "Potency": "inconclusive [inhibitor, single point]"}
{"smiles": "Fc1cccc(Cc2c(-c3ccc(Cl)cc3)nc3ccc(Cl)cn23)c1", "Potency": "inconclusive [inhibitor, single point]"}
{"smiles": "CCOC(=O)c1c(S(=O)(=O)N2CCCC(C(=O)Nc3cccc(CC)c3)C2)c(C)n(CC)c1C", "note": "(centres undefined)", "Potency": "active: 18.4 µM"}
{"smiles": "Cc1ccc(-n2ncc(C(=O)N3CCN(c4ccccc4F)CC3)c2C2CCN(C(=O)OC(C)(C)C)CC2)cc1C", "Potency": "inconclusive [inhibitor, full curve]"}
{"smiles": "CSc1ncc(Cl)c(C(=O)Nc2c(C(=O)c3ccc(Cl)cc3)oc3ccccc23)n1", "activity change, negative = growth inhibition": "inactive: -13.7%"}
{"smiles": "Cc1cc(C)nc(NNC(=O)NC2CCCCC2)n1", "Potency": "inconclusive [inhibitor, single point]"}
{"smiles": "COc1ccc(CN2C[C@@H](CO)O[C@@H](n3cnc4c(NCc5cc(OC)c(OC)c(OC)c5)ncnc43)C2)cc1", "Potency": "inconclusive [inhibitor, single point]"}
{"smiles": "CCCCNC(=O)CSc1nc2cc3c(cc2c(=O)n1CCC(=O)NCCc1ccc(OC)c(OC)c1)OCO3", "Potency": "inconclusive [inhibitor, partial curve, poor fit]"}
{"smiles": "O=C(c1cc(Cl)nc2ccccc12)N1CCCCC1", "activity change, negative = growth inhibition": "inactive: -21.6%"}
{"smiles": "CCOC(=O)c1c(C)[nH]c(C)c1S(=O)(=O)NCC(=O)Nc1cccc(Cl)c1", "Potency": "inconclusive [inhibitor, single point]"}
{"smiles": "Fc1ccccc1N1CCN(C(c2ccccn2)c2nnnn2C2CCCCC2)CC1", "note": "(centres undefined)", "Potency": "inconclusive [inhibitor, single point]"}
{"smiles": "CCCn1c2ccc(C)cc2c2nnc(SCCN3CCOCC3)nc21", "Potency": "inconclusive [inhibitor, single point]"}
{"smiles": "Cn1cccc1C(=O)N1CCC[C@@]2(CCN(C(c3ccccc3)c3ccccc3)C2)C1", "Potency": "inconclusive [inhibitor, single point]"}
{"smiles": "COc1ccc(CN(C)C(=O)Cn2cnc3c(SC)nc(N)nc32)cc1OC", "Potency": "active: 14.6 µM"}
{"smiles": "COc1ccc(OC)c(C(=O)N2CCc3c(cnc(C)c3CNS(=O)(=O)N(C)C)C2)c1", "activity change, negative = growth inhibition": "inactive: 6.43% [at 9.04 µM]"}
